Results as given in PubChem BioAssay AID2147 (National Center for Advancing Translational Sciences (NCATS), 2009).
The whole screen tested about 230,000 compounds, of which about 3,600 (1.6%) were called active. Inconclusive means that the source gave no clear call. Such entries were picked first, then a sample of the others. The call rests on the fitted dose curve; in most records, active means well fitted inhibition curve with a large enough effect (not every such curve was filed as active); inconclusive means small, poorly fitted or top-dose-only effect, or another doubt; inactive means no such curve, though single readings can be large or run the other way. Potencies beside an inconclusive call are fits to weak or partial responses and may not hold up.
Further: nearly all actives have a fitted effect of over 50% in size.
Potency means the concentration at half of the fitted maximal effect; tags describe the fitted curve by direction and shape.

These compounds were tested against Lysine-specific demethylase 4E (Homo sapiens) (UniProt B2RXH2) (assay: qHTS Assay for Inhibitors of Human Jumonji Domain Containing 2E (JMJD2E)). Conditions: JMJD2E catalytic domain, FDH-coupled NADH fluorescence (FDH is formaldehyde dehydrogenase); series mostly up to 57.1 µM.
Sequence of UniProt B2RXH2 (B2RXH2 whole entry, looked up, the tested form may be a part): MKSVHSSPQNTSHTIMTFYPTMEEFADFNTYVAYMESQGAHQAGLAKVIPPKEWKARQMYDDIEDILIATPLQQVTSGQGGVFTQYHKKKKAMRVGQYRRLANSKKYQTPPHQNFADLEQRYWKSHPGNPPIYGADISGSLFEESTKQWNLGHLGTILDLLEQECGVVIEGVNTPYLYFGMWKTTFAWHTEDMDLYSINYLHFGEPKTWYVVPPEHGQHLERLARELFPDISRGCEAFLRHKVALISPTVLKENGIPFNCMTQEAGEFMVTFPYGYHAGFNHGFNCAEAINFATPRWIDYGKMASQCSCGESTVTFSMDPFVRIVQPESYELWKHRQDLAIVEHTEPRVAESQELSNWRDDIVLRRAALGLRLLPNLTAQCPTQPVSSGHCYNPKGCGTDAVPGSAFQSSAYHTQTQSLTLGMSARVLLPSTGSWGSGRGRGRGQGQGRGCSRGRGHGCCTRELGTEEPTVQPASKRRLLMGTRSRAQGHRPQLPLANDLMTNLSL
For `Clc1ccccc1N/N=C/c1ccc2c(c1)OCO2`, the Potency was inconclusive: 39.8 µM [inhibitor, single point]. `Cn1nccc1C(=O)N1CCN(c2ncccn2)CC1` was tested, and the Potency was inconclusive: 39.8 µM [inhibitor, single point]. With `Nc1c(C(=O)NCc2ccc(Cl)cc2)sc2nc3c(c(C(F)(F)F)c12)CCC3` the Potency was “inactive”. In the case of `COc1cc(/C=N/NC(=S)Nc2cccnc2)cc(OC)c1O`, the Potency was inconclusive: 39.8 µM [inhibitor, single point]. With `CCCCn1cc(SCC(=O)O)c2ccccc21` the Potency was inconclusive: 35.5 µM [inhibitor, single point]. `CCOC(=O)C(CSCC(=O)c1ccc(Cl)cc1Cl)NC(=O)OC(C)(C)C` (configuration not stated) was tested, and the Potency was inconclusive: 0.501 µM [inhibitor, single point]. For `CCC12CN3CC(CC)(CN(C1)C3c1ccc([N+](=O)[O-])o1)C2=O` (configuration not stated), the Potency was “inactive”. For `CCOc1ccccc1NC(=O)c1cc(C(=O)c2cc(Br)ccc2O)coc1=N`, the Potency was inconclusive: 25.1 µM [inhibitor, single point]. `O=C(CCN1C(=O)/C(=C/c2ccccc2Cl)SC1=S)NNC(=O)c1cccnc1` was tested, and the Potency was “inactive”. `COc1ccc2c(c1)C(=O)[C@@H](OC(=O)NCCOc1ccccc1)[C@H](c1ccc(OC)c(Br)c1)O2` was tested, and the Potency was inconclusive: 35.5 µM [inhibitor, single point]. In the case of `COC(=O)Oc1nsnc1N1CCOCC1`, the Potency was inconclusive: 25.1 µM [inhibitor, single point]. For `COc1ccc2c(CC(=O)OCC(=O)Nc3ccc4c(c3)OCO4)coc2c1`, the Potency was inconclusive: 39.8 µM [inhibitor, single point]. For `CC1(C)Cc2ccccc2-c2nc(NCCCO)[nH]c(=O)c21`, the Potency was inconclusive: 35.5 µM [inhibitor, partial curve]. For `OCC(Cc1ccccc1)Nc1c2ccccc2nc2ccccc12` (configuration not stated), the Potency was inconclusive: 25.1 µM [inhibitor, partial curve]. In the case of `CSS(=O)(=O)c1cccc2cccnc12`, the Potency was active: 2.51 µM. For `COC(=O)c1ccc(CSc2nc(C)nc3sc(C)c(C)c23)o1`, the Potency was “inactive”. In the case of `NNC(=O)c1cc2c(s1)-c1cc(Cl)ccc1SC2`, the Potency was inconclusive: 17.8 µM [inhibitor, partial curve]. In the case of `O=S(=O)(/N=C(/c1ccccc1)N1CCCCC1)c1ccccc1`, the Potency was “inactive”. `Cc1cc(C)c(C#N)c(N2CCSCC2)n1` was tested, and the Potency was inconclusive: 8.91 µM [inhibitor, partial curve]. For `COc1cccc(CNCc2ccc(C(=O)O)cc2)c1OC`, the Potency was “inactive”. In the case of `COc1cc(CC(=O)Nc2sccc2C(N)=O)cc(OC)c1OC`, the Potency was inconclusive: 39.8 µM [inhibitor, single point]. For `O=C1NCC(c2ccccc2)C1C(=O)N/N=C/c1ccc(Cl)s1` (configuration not stated), the Potency was “inactive”. For `COc1cccc(/C=N/NC(=O)C(C)n2nc(C)c([N+](=O)[O-])c2C)c1O` (configuration not stated), the Potency was active: 14.1 µM. `CCCn1cc(SCC(=O)NCc2ccco2)c2ccccc21` was tested, and the Potency was “inactive”. In the case of `CCc1ccccc1OCCOc1ccc(C)cc1OC`, the Potency was inconclusive: 39.8 µM [inhibitor, single point]. With `COC(=O)c1c(-c2ccccc2)csc1NC(=O)c1ccco1` the Potency was inconclusive: 28.2 µM [inhibitor, partial curve]. In the case of `CCN(CC)S(=O)(=O)c1ccc(N2CCOCC2)c(NC(=O)COc2ccccc2)c1`, the Potency was inconclusive: 22.4 µM [inhibitor, single point]. `CCOC(=O)c1cc2c(=O)n3ccccc3nc2n(CCCOC)c1=NC(C)=O` was tested, and the Potency was inconclusive: 31.6 µM [inhibitor, partial curve]. In the case of `Cc1cccc(C)c1N=C1NN=C(c2ccccc2F)CS1`, the Potency was “inactive”. With `CCN(CC)CCOc1cccc(C(C)C)c1` the Potency was inconclusive: 39.8 µM [inhibitor, single point]. With `CCOC(=O)N1CCN(C(=O)CSc2ccc3nnc(CCNC(=O)c4ccc(OC)cc4)n3n2)CC1` the Potency was inconclusive: 39.8 µM [inhibitor, single point]. `COc1ccc(CCNC(=O)c2nnn(CC(=O)Nc3cccc(F)c3)c2N)cc1OC` was tested, and the Potency was “inactive”. With `CCc1ccc(-c2csc(-c3c[nH]c4ccccc34)n2)cc1` the Potency was “inactive”. `O=C(NCc1ccc2c(c1)OCO2)c1ccc(Cl)c(S(=O)(=O)N2CCOCC2)c1` was tested, and the Potency was “inactive”. `COC(=O)c1c(C)nc(C)c(C(=O)OC)c1-c1ccsc1` was tested, and the Potency was inconclusive: 39.8 µM [inhibitor, single point]. `Cc1cccc(CN2CCCC(C(=O)c3ccc4c5c(cccc35)CC4)C2)n1` (configuration not stated) was tested, and the Potency was inconclusive: 28.2 µM [inhibitor, partial curve]. `Oc1ccc(/C=N/Nc2cc(N3CCCC3)nc(N3CCCC3)n2)cc1` was tested, and the Potency was inconclusive: 31.6 µM [inhibitor, partial curve]. In the case of `O=[N+]([O-])c1cc(Br)cc(C=Nc2ccc3c(c2)OCO3)c1O`, the Potency was inconclusive: 31.6 µM [inhibitor, single point]. `O=C(N/N=C/c1ccc2c(c1)OCO2)C1COc2ccccc2O1` (configuration not stated) was tested, and the Potency was “inactive”. With `COCCNC(=O)COC(=O)C1=Cc2ccccc2OC1` the Potency was inconclusive: 31.6 µM [inhibitor, single point]. With `Cc1ccc2c(c1)S/C(=C/c1ccc[n+](C)c1)N2CCO` the Potency was “inactive”. In the case of `Cc1cc(NCCCn2ccnc2)n2ncc(-c3ccc(Cl)cc3)c2n1`, the Potency was inconclusive: 25.1 µM [inhibitor, partial curve]. In the case of `CCn1c(=O)c(C(=O)NCCCO)c(O)c2ccccc21`, the Potency was inconclusive: 39.8 µM [inhibitor, single point]. With `COC(=O)c1ccccc1NC(=O)c1ccc(COc2ccc(C)c(C)c2)o1` the Potency was inconclusive: 31.6 µM [inhibitor, single point]. `O=c1[nH]c2cc3c(cc2cc1CN(Cc1ccccc1)Cc1nnnn1Cc1ccco1)OCCO3` was tested, and the Potency was inconclusive: 28.2 µM [inhibitor, partial curve]. `CCOc1ccc(C2c3[nH]c4ccccc4c3CCN2Cc2cccn2-c2ncccn2)cc1` (configuration not stated) was tested, and the Potency was inconclusive: 39.8 µM [inhibitor, single point]. For `Cc1ccc(Nc2nc(N)nc(CN3CCN(Cc4ccc5c(c4)OCO5)CC3)n2)cc1`, the Potency was “inactive”. In the case of `CN(C)c1ccc(NC(=O)Nc2cccc3ccccc23)cc1`, the Potency was inconclusive: 28.2 µM [inhibitor, partial curve]. In the case of `COC(=O)c1[nH]c2ccccc2c1NC(=O)CN1CCN(c2cccc(Cl)c2)CC1`, the Potency was inconclusive: 25.1 µM [inhibitor, partial curve]. With `COCCN(CCOC)S(=O)(=O)c1ccc(C(=O)Nc2ccc([N+](=O)[O-])cc2OC)cc1` the Potency was inconclusive: 39.8 µM [inhibitor, single point]. In the case of `C(=N\n1c2ccccc2c2ccccc21)/c1ccccc1`, the Potency was “inactive”. `CCCCCCC(=O)Nc1cc2c(C)cc(=O)oc2cc1C` was tested, and the Potency was inconclusive: 14.1 µM [inhibitor, partial curve]. With `CCC(C)c1ccc(OCCn2cc(/C=N/NC(=O)CSc3nnc(C)s3)c3ccccc32)cc1` (configuration not stated) the Potency was inconclusive: 39.8 µM [inhibitor, single point]. `Cc1c(N2C(=O)CS/C2=N\N=C\c2ccc(Br)cc2)c(=O)n(-c2ccccc2)n1C` was tested, and the Potency was “inactive”. `COc1ccc2[nH]c(=O)c(CN(Cc3nnnn3CCc3ccccc3)CC3CCCO3)cc2c1` (configuration not stated) was tested, and the Potency was inconclusive: 31.6 µM [inhibitor, partial curve]. `N#C/C(=C\c1ccncc1)c1nc2ccccc2c(=O)[nH]1` was tested, and the Potency was inconclusive: 35.5 µM [inhibitor, single point]. For `COc1ccccc1-c1c(C)oc2cc(OC(=O)c3ccco3)ccc2c1=O`, the Potency was inconclusive: 35.5 µM [inhibitor, single point]. With `Cc1ccc(CSc2nnc(Nc3ccc(C)cc3)s2)cc1` the Potency was “inactive”. For `CCN1CCc2c(sc(N)c2C(N)=O)C1`, the Potency was inconclusive: 28.2 µM [inhibitor, partial curve]. For `COc1ccc2c(c1)C(=O)[C@@H](OC(=O)Nc1ccc(C)c(Br)c1)[C@H](c1ccc(OC)c(Br)c1)O2`, the Potency was inconclusive: 31.6 µM [inhibitor, single point]. `COC(=O)c1ccccc1SC(CC(=O)c1ccccc1)c1ccc(F)cc1` (configuration not stated) was tested, and the Potency was “inactive”. In the case of `NC(=S)Nc1cnc2ccccc2c1`, the Potency was “inactive”. In the case of `COc1cc(C(=O)N(Cc2ccco2)Cc2cc3ccccc3[nH]c2=O)cc(OC)c1OC`, the Potency was inconclusive: 35.5 µM [inhibitor, single point]. For `Cc1oc(-c2ccccc2)cc1C(=O)Nc1ccc(N(C)C)cc1`, the Potency was “inactive”. For `COc1ccc(C2=CC(=O)OC3(CCCC3)O2)cc1`, the Potency was “inactive”. `COc1cc(C)nc(N2CCCC(C(=O)NCC(C)C)C2)n1` (configuration not stated) was tested, and the Potency was inconclusive: 25.1 µM [inhibitor, single point]. With `Cc1cccc2cc3c(NC(=O)c4ccccn4)nn(C)c3nc12` the Potency was inconclusive: 8.91 µM [inhibitor, partial curve]. `COc1ccc(C(=O)/C=C/Nc2cc(C)on2)cc1` was tested, and the Potency was inconclusive: 39.8 µM [inhibitor, single point]. In the case of `CCOc1ccc(CC(=NCCO)C2=C(O)CC(C)(C)CC2=O)cc1OCC`, the Potency was inconclusive: 28.2 µM [inhibitor, single point]. For `N#Cc1c(N)n(CCCN2CCOCC2)c2nc3ccccc3nc12`, the Potency was inconclusive: 31.6 µM [inhibitor, partial curve]. For `O=S(=O)(Nc1cc(Sc2cccc3cccnc23)c(O)c2ccccc12)c1ccccc1`, the Potency was active: 28.2 µM. `COC(=O)c1cccc(C23CC4(C2)[C@H](CN(Cc2ccc(-c5ccccc5)cc2)[C@@H]4c2ccccc2)C3c2ccc(C(F)(F)F)cc2)c1` (some centres not stated) was tested, and the Potency was active: 20 µM.
